# Results as given in PMC4336329 (PLoS ONE, 2015).
# Screen size: about 310,000 compounds; about 14,000 (4.5%) showed an effect of 50% or more. The effect is printed as a negative number. The list shows a part of the results.
# Target: human ether-à-go-go-related gene (hERG) potassium channel (human, UniProt Q12809)
# Assay: primary screen, population patch clamp on CHO cells stably expressing hERG
# 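Further: peak tail current of the secondary pulse compared with the same well before compound.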
# Chain of human ether-à-go-go-related gene (hERG) potassium channel (Q12809 whole entry, looked up): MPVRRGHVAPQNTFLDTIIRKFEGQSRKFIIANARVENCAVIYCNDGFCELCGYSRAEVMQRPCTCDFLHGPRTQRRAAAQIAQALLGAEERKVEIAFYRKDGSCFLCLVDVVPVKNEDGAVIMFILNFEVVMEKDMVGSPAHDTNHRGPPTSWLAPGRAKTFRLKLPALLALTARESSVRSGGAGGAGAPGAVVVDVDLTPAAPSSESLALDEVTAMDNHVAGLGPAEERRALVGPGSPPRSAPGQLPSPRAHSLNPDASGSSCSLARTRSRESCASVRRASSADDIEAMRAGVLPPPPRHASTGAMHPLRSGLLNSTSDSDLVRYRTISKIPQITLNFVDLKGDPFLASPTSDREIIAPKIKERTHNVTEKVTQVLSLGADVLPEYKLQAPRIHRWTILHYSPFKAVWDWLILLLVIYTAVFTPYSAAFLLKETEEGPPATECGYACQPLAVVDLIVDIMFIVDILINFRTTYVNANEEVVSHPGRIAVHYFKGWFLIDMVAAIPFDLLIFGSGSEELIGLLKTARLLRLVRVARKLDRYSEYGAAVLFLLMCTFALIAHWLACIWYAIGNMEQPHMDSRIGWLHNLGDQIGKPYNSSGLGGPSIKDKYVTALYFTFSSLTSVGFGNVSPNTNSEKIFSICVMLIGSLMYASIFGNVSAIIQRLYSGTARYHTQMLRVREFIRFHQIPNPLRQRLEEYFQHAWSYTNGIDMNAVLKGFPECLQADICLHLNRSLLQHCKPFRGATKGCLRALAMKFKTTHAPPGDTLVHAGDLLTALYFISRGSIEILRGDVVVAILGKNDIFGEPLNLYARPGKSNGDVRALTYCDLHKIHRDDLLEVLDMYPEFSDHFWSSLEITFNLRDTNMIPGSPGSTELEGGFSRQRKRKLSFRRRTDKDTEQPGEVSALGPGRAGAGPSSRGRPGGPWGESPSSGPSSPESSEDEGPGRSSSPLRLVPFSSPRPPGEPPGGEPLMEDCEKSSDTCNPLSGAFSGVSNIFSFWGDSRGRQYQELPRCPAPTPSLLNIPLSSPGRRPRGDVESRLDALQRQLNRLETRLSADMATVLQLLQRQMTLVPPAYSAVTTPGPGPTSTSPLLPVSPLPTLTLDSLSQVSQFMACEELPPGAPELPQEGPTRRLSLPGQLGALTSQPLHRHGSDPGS
row,SMILES,"hERG current change (%, negative = inhibition) at 10uM [%]"
1,CCCCN(C(=O)CN1C(=O)C2CC=CCC2C1=O)c1c(N)n(CCC)c(=O)[nH]c1=O (stereo not drawn),4.14
2,Cc1ccc(/C(O)=C2\C(=O)C(=O)N(Cc3cccnc3)C2c2ccccc2[N+](=O)[O-])cc1 (stereo not drawn),3.46
3,COc1c(C)cccc1C(=O)Nc1ccc(CN2CCOCC2)cc1,0.813
4,COC(=O)c1c(NC(=O)Cn2cnc([N+](=O)[O-])n2)sc2c1CCC(C)C2 (stereo not drawn),7.13
5,CCOC(=O)c1c(NC(=O)C2C3CCC(O3)C2C(=O)O)sc(C)c1-c1ccc(F)cc1 (stereo not drawn),-3.23
6,COc1cc(/C=N/N=C(/N)c2nonc2N)cc(Br)c1OCc1cccc(C)c1,-6.25
7,O=C(NC(NC(=S)N1CCOCC1)C(Cl)(Cl)Cl)c1cccc2ccccc12 (stereo not drawn),-13.9
8,COc1ccc(C(NC(=O)c2cc(OC)ccc2OC)c2ccccc2)cc1 (stereo not drawn),-18.6
9,Cc1cc(C)n(CC(=O)NCc2cc(-c3nn(C)c(=O)c4ccccc34)ccc2C)n1,-10.7
10,C=CCNc1nc(-c2c(C)nc3ncccn23)cs1,-0.737
11,Clc1ccccc1Cn1nnc(-c2ccccc2)n1,4.02
12,COc1ccc(CCN2CCCC(CN(C)Cc3cccc(OC)c3)C2)cc1 (stereo not drawn),-60.6
13,NS(=O)(=O)c1ccc(NC(=S)NCc2cccs2)cc1,13.4
14,CCCOc1ccc(/C=N/NC(=O)C(=O)Nc2ccccn2)cc1,0.313
15,CCOC(=O)c1ccc(N2CCOCC2)c(NS(=O)(=O)c2ccc(F)cc2)c1,10.6
16,NC(CO)(CO)CO.Nc1ncnc2c1ncn2[C@@H]1O[C@H](COP(=O)(O)OP(=O)(O)OP(=O)(O)O)[C@@H](O)[C@H]1O.O,2.24
17,Nc1ccc(S(=O)(=O)Nc2ccc(Cl)nn2)cc1,4.14
18,O=C(CCl)c1ccc2c(c1)CCN2C(=O)C1CC1,-25.5
19,COc1ccc(C(=O)COC(=O)CN2C(=O)NC3(CC(C)CC(C)(C)C3)C2=O)c(OC)c1 (stereo not drawn),-31.5
20,Cc1ccccc1OCCc1c(C)[nH]c(=S)[nH]c1=O,15.8
21,CSC1=C(C#N)C(c2sccc2C)CC(=O)N1 (stereo not drawn),18
22,CC(C)COC(=O)c1cc(=O)[nH]c2ccccc12,-11.3
23,Cc1ccc(S(=O)(=O)N(CC(O)CN2C(=O)NC(C)(C)C2=O)c2ccccc2)cc1 (stereo not drawn),-37.7
24,Cc1ccc(CNC(=O)c2ccc(CS(=O)(=O)c3ccccc3C)o2)cc1,-25.3
25,CCOC(=O)c1c(/N=C/C2=C(O)CC(C)(C)CC2=O)sc2c1CCCC2,11.4
26,CC(C)CNS(=O)(=O)c1ccc(OCC(=O)Nc2ccc3c(c2)OCO3)c(Cl)c1,2.71
27,Cc1ccc(C(=O)N/N=C2\CCc3ccccc32)c(C)c1,3.72

row,SMILES,"hERG current change (%, negative = inhibition) at 10uM [%]"
1,CCOC(=O)N1C=CC=C[C@@H]2[C@@H](N3C(=O)c4ccccc4C3=O)C(=O)N21,0.941
2,CC(C)C(OC(=O)c1ccc(Cl)nc1)C(=O)NC1CCCCC1 (stereo not drawn),14.3
3,CCn1c(SCc2ccc(Cl)c(Cl)c2)nnc1C(C)NC(=O)c1ccc(OC)cc1 (stereo not drawn),10
4,CC(OCc1ccccc1)C(NC(=O)OC(C)(C)C)C(=O)NCC1CCCO1 (stereo not drawn),-7.39
5,Nc1cc(-c2ccc(Cl)cc2)nn1-c1ccccc1,12.7
6,CCOc1ccc2nc3cc(NCc4ccc(OC)cc4)ccc3c(N)c2c1,-17.7
7,CC(C)OCCCNC(=O)CN1C(=O)CSc2ccc(S(=O)(=O)N3CCCCC3)cc21,0.76
8,O=C(CNC(=O)c1cccc(OC(F)F)c1)OCn1nnc2ccccc2c1=O,-2.85
9,CC(C)Oc1ccc(/C(O)=C2/C(=O)C(=O)N(CCCn3ccnc3)C2c2cccnc2)cc1 (stereo not drawn),13.6
10,CC(C)Cc1ccc(C(=O)Nc2ccc(Cc3ccncc3)cc2)o1,-57.6
11,Cc1csc2ncnc(N3CCN(C(=S)Nc4ccc(F)cc4F)CC3)c12,-30
12,N#CCCN(C(=O)COC(=O)CCc1nc2ccccc2c(=O)[nH]1)c1ccc(F)cc1,1.57
13,O=C(CSc1nnc(-c2ccccc2O)o1)Oc1ccc(OCc2ccccc2)cc1,20.1
14,Cc1cc(C)c(C(=O)N2CCCC(N3CCN(c4cccc(C(F)(F)F)c4)CC3)C2)o1 (stereo not drawn),-52.1
15,COc1ccc(-n2nc3c(N4CCC(C(=O)NCc5ccccc5)CC4)nnc(C)c3c2C)cc1,16.3
16,O=C(Nc1ccccc1N1CCCCC1)C1CCN(C(=O)c2ccc(Cl)cc2)CC1,-69.9
17,COCC(=O)N(Cc1cc2ccc(C)cc2[nH]c1=O)c1ccccc1C,12.8
18,CC(NC(=O)c1cccc(OC2CCN(C3CCN(C)CC3)CC2)c1)c1ccccc1 (stereo not drawn),7.63
19,COc1ccc(OC)c(CCNC(=O)c2ccc(CS(=O)(=O)c3ccc(Br)cc3)o2)c1,1.02
20,CCc1cc2c(=O)n(-c3ccccc3)c(=S)[nH]c2s1,18.4
21,O=C(Nc1ccccc1)C1=C[C@H](C2CC2)C[C@H](OCCCCO)O1,7.36
22,COc1ccc(C2C(C#N)=C(N)OC3=C2C(=O)CCC3)cc1OC (stereo not drawn),4.07
23,CCOC(=O)CSc1ncnc2c1cnn2-c1ccc(C)cc1,6.44
24,CCCCn1nc2cc(C(=O)NC[C@@H]3CCCO3)ccc2c1OCC,8.44
25,COc1ccc(COCC(O)CN2CCOCC2)cc1OC.Cl (stereo not drawn),20.8
26,O=C1NC(c2ccncc2)C(C(=O)c2cccs2)C(O)(C(F)(F)F)N1 (stereo not drawn),2.61
27,O=C(CSc1ccc(-c2ccccc2)nn1)N1CCCc2ccccc21,-23.8
